{"source": "paper PMC4336329", "about": "(PLoS ONE, 2015)", "note": "Among all 310,000 compounds or so, about 2,200 (0.71%) showed an effect of 50% or more. The effect is printed as a negative number. The list shows a part of the results."}
{"target": "human ether-à-go-go-related gene (hERG) potassium channel (human, UniProt Q12809)", "sequence (Q12809 whole entry, looked up)": "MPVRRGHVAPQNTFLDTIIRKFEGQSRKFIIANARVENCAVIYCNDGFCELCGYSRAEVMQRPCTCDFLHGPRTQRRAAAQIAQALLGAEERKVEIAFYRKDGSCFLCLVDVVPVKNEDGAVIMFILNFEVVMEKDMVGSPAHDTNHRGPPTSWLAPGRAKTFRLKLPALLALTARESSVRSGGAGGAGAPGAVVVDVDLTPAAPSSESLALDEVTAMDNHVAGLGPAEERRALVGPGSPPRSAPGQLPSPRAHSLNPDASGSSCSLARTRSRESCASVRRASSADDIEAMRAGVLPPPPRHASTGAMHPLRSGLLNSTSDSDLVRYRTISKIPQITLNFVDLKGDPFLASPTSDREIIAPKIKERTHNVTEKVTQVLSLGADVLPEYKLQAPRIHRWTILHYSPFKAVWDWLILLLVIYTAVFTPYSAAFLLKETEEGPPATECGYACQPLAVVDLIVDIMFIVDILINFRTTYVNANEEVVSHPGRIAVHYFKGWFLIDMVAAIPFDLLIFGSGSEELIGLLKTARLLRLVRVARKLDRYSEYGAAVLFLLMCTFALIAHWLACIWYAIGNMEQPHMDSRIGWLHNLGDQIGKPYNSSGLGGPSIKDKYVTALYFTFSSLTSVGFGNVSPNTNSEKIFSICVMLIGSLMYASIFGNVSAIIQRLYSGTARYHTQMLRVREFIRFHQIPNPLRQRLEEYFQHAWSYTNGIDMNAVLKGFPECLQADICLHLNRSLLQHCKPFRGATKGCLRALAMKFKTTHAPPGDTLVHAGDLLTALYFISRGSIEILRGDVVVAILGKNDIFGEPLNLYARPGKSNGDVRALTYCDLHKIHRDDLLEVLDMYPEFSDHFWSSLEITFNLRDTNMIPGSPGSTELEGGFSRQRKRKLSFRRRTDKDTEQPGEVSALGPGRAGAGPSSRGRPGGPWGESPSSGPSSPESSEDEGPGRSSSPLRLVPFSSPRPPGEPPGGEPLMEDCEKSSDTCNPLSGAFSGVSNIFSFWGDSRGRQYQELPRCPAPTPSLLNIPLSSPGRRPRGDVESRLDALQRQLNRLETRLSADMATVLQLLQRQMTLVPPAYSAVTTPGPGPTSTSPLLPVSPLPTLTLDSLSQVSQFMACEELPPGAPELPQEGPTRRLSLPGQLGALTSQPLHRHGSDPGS", "assay": "primary screen, population patch clamp on CHO cells stably expressing hERG", "units": {"hERG current change (%, negative = inhibition) at 1uM": "%"}}
{"compound": "C(=N\\c1nc2ccccc2n1CCN1CCOCC1)/c1cccs1", "hERG current change (%, negative = inhibition) at 1uM": -7.01}
{"compound": "Cc1cccc(NC(=O)Nc2ccncc2)c1", "hERG current change (%, negative = inhibition) at 1uM": 14.9}
{"compound": "Cc1nc2c(c(=O)n1CCC1=CCCCC1)c1nc3ccccc3nc1n2/N=C/c1ccco1", "hERG current change (%, negative = inhibition) at 1uM": 1.51}
{"compound": "O=C(Nc1cnc2ccccc2c1)c1ccco1", "hERG current change (%, negative = inhibition) at 1uM": 7.85}
{"compound": "Cc1c(O)ccc2c3c(c(=O)oc12)CCCC3", "hERG current change (%, negative = inhibition) at 1uM": 8.37}
{"compound": "O=C(c1nc2ccccn2c1CNCCCn1nnc2ccccc21)N1CCOCC1", "hERG current change (%, negative = inhibition) at 1uM": 4.12}
{"compound": "CC(C)c1ccccc1NC(=S)NN(Cc1ccccc1)c1ccccc1", "hERG current change (%, negative = inhibition) at 1uM": 12.1}
{"compound": "Cc1cc(Br)ccc1N=C1NC(=O)CS1", "hERG current change (%, negative = inhibition) at 1uM": 9.93}
{"compound": "O=C(CC1Oc2ccccc2NC1=O)NCc1ccccc1", "note": "(stereo not shown)", "hERG current change (%, negative = inhibition) at 1uM": 3.24}
{"compound": "COc1ccc(C)cc1NC(=O)COC(=O)Cc1ccc(-c2ccccc2)cc1", "hERG current change (%, negative = inhibition) at 1uM": 10.7}
{"compound": "COc1ccc(-c2ccc(C(C)=O)cc2)cc1[C@H]1[C@H]2C=CC[C@@H](C)[C@@H]2C(=O)N1Cc1ccccc1", "hERG current change (%, negative = inhibition) at 1uM": 8.82}
{"compound": "O=[N+]([O-])c1ccc(Cc2ccccn2)c([N+](=O)[O-])c1", "hERG current change (%, negative = inhibition) at 1uM": -6.96}
{"compound": "Cn1c(C(=O)NCCCN2CCc3ccccc3C2)cc2c(=O)n(C)c3ccccc3c21", "hERG current change (%, negative = inhibition) at 1uM": -5.66}
{"compound": "O=C(Cn1cc(C(F)(F)F)ccc1=O)NC1CCCC1", "hERG current change (%, negative = inhibition) at 1uM": 10.3}
{"compound": "C=CCNC(=S)NNC(=O)c1cccn(Cc2cccc(Cl)c2)c1=O", "hERG current change (%, negative = inhibition) at 1uM": 5.17}
{"compound": "CC1=C(C#N)C(=O)NC(=O)/C1=C/c1ccc(-c2ccc(S(N)(=O)=O)cc2)o1", "hERG current change (%, negative = inhibition) at 1uM": 9.65}
{"compound": "CC1CCCCC12NC(=O)N(CC(=O)Nc1ccccc1-c1ccccc1)C2=O", "note": "(stereo not shown)", "hERG current change (%, negative = inhibition) at 1uM": 3.31}
{"compound": "CCCN1C2=NS(=O)(=O)CCN2c2ccccc21", "hERG current change (%, negative = inhibition) at 1uM": -0.883}
{"compound": "Cc1ccc(NS(=O)(=O)c2cc(C(=O)N3CCN(C)CC3)ccc2C)cc1C", "hERG current change (%, negative = inhibition) at 1uM": 6.43}
{"compound": "CCCCNC(=S)N1CCn2cccc2C1c1ccc(F)cc1", "note": "(stereo not shown)", "hERG current change (%, negative = inhibition) at 1uM": 6.35}
{"compound": "CC(=O)N1C(=O)N(C)C2C1N(C)C(=O)N2C(C)=O", "note": "(stereo not shown)", "hERG current change (%, negative = inhibition) at 1uM": 16.6}
{"compound": "COc1cc(NC(=O)c2ccc([N+](=O)[O-])o2)ccc1NC(=O)c1ccco1", "hERG current change (%, negative = inhibition) at 1uM": 16.7}
{"compound": "COc1ccc(C)cc1S(=O)(=O)NC(C)C(=O)NC1CC1", "note": "(stereo not shown)", "hERG current change (%, negative = inhibition) at 1uM": 8.45}
{"compound": "Cc1c(C)c(C)c(/C=[N+](/C)[O-])c(C)c1C", "hERG current change (%, negative = inhibition) at 1uM": 21.4}
{"compound": "CCN=C1SC(C(=O)Nc2ccc(Cl)c(Cl)c2)CC(=O)N1CC", "note": "(stereo not shown)", "hERG current change (%, negative = inhibition) at 1uM": 6.96}
